{"source": "PubChem BioAssay AID504832", "about": "(National Center for Advancing Translational Sciences (NCATS), 2011)", "note": "Where “and” joins values, the source holds several entries; their conditions need not be identical. Identical values can stand only once. Out of some 310,000 compounds screened, about 18,000 (5.8%) were called active. The shares of active, inactive and inconclusive entries below differ from those in the screen. The call rests on the fitted dose curve; in most records, active means well fitted inhibition curve with a large enough effect; inconclusive means small, poorly fitted or top-dose-only effect, or another doubt; inactive means no such curve, though single readings can be large or run the other way. Potencies of inconclusive entries are left out as doubtful fits. Potency means the concentration at half of the fitted maximal effect; tags describe the fitted curve by direction and shape."}
{"assay": "Primary qHTS for delayed death inhibitors of the malarial parasite plastid, 48 hour incubation", "details": "P. falciparum luciferase growth in erythrocytes; series mostly up to 28.7 µM", "in_short": "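Luminescence readout; reporter = integrated firefly luciferase in P. falciparum. RBC culture at 2% hematocrit, 0.1% parasitemia final, 37 C/5% CO2; decreased signal taken as growth inhibition.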"}
{"smiles": "CN(CCNC(=O)c1cc2c(-c3ccccc3F)nn(C)c2s1)C1CCCCC1", "Potency": "active: 1.65 µM"}
{"smiles": "COc1ccc(/C=C/C(=O)N(CCC(N)=O)c2ccccc2)cc1S(=O)(=O)N1CCOCC1", "Potency": "inconclusive [inhibitor, partial curve]"}
{"smiles": "CCN(CC)CCCNC(=O)c1cc2c(Cl)nc3ccccc3c2s1", "Potency": "inconclusive [inhibitor, full curve, poor fit]"}
{"smiles": "N#Cc1ccc(OCC(O)CN2CCN(C(c3ccccc3)c3ccccc3)CC2)cc1", "note": "(configuration not stated)", "Potency": "inconclusive [inhibitor, partial curve, poor fit]"}
{"smiles": "Cn1cc(C[C@H](C(=O)O)N2C(=O)c3ccc(C(=O)O)cc3C2=O)c2ccccc21", "Potency": "inconclusive [inhibitor, single point]"}
{"smiles": "Cc1cc(NC(=O)CCC(=O)N(CC(=O)NCC2CCCO2)c2ccc(Cl)c(Cl)c2)no1", "note": "(configuration not stated)", "Potency": "inactive"}
{"smiles": "COC(=O)C1=C(c2ccc(OC(F)(F)F)cc2)C[C@@H]2CC[C@H]1N2C(=O)N1CCCC1", "Potency": "inconclusive [inhibitor, single point]"}
{"smiles": "COC(=O)c1c(NC(=O)C(C)(C)C)csc1C", "Potency": "inactive"}
{"smiles": "CC(NC(=O)c1ccccc1NC(=O)CN1CCN(c2ccccc2O)CC1)c1ccccc1", "note": "(configuration not stated)", "Potency": "active: 5.86 µM"}
{"smiles": "OC1CCN(c2ncnc3c2nnn3Cc2c(F)cccc2Cl)CC1", "Potency": "inconclusive [inhibitor, partial curve, poor fit]"}
{"smiles": "OCCN(CCO)c1nc(N2CCCCC2)c2nc(N(CCO)CCO)nc(N3CCCCC3)c2n1", "Potency": "active: 2.69 µM and active: 2.08 µM"}
{"smiles": "Cc1ccc(S(=O)(=O)NCCC(=O)NCc2ccc(Cl)cc2)cc1C", "Potency": "inconclusive [inhibitor, single point]"}
{"smiles": "O=C(/C=C/NCc1cccnc1)c1ccc(-c2ccccc2)cc1", "Potency": "inactive"}
{"smiles": "COc1ccc(/C=C/C(=O)c2ccc(O)cc2)cc1COc1ccc(F)cc1", "Potency": "inconclusive [inhibitor, partial curve, poor fit]"}
{"smiles": "COc1ccccc1/C=C/C=N/n1c(-c2ccc(C)cc2)n[nH]c1=S", "Potency": "inactive"}
{"smiles": "Cc1ccc(-n2cc(CNCCCn3cccn3)c(-c3cccc(C)c3)n2)cc1", "Potency": "inconclusive [inhibitor, single point]"}
{"smiles": "O=c1c2cnn(-c3ccccc3)c2ncn1Cc1cccnc1", "Potency": "inactive"}
{"smiles": "CCN1CCCc2cc(CN(CCN3CCOCC3)C(=S)Nc3cc(F)cc(F)c3)ccc21", "Potency": "inconclusive [inhibitor, partial curve, poor fit]"}
{"smiles": "O=C(CSc1nc(C2CCCCC2)nc2ccccc12)N1CCCC1", "Potency": "inconclusive [inhibitor, single point]"}
{"smiles": "Cc1cccc(C)c1-n1nnnc1S(=O)(=O)Cc1ccccc1Cl", "Potency": "inconclusive [inhibitor, single point]"}
{"smiles": "Cc1nnc2ccc(-c3cccc(NS(C)(=O)=O)c3)nn12", "Potency": "inactive"}
{"smiles": "CCOC(=O)c1ccc(NC(=O)CCc2nc(-c3cccc(C)c3)no2)cc1", "Potency": "inconclusive [inhibitor, partial curve, poor fit]"}
{"smiles": "O=C(CNC(c1ccccc1)c1ccccc1)Nc1cc([N+](=O)[O-])ccc1Cl", "Potency": "inconclusive [inhibitor, single point]"}
{"smiles": "CN1C2CCC1/C(=C/c1ccccn1)C(=O)/C2=C\\c1ccccn1", "Potency": "active: 0.657 µM"}
{"smiles": "CCC(C)(C)n1nnnc1CN(Cc1ccc(Cl)cc1)Cc1ccco1", "Potency": "active: 10.4 µM"}
{"smiles": "CCOc1ccc(NC(=O)CN(C)C(=O)c2c(C)nn(-c3ccc(F)cc3)c2Cl)cc1OCC", "Potency": "inconclusive [inhibitor, single point]"}
{"smiles": "CCOC(=O)C1Nc2ccc(Br)cc2C2C=CCC12", "note": "(configuration not stated)", "Potency": "inconclusive [inhibitor, partial curve, poor fit]"}
{"smiles": "COc1ccc(/C=C/C(=O)c2ccc(OC)cc2OC)c(OC)c1", "Potency": "inconclusive [inhibitor, single point]"}
{"smiles": "CC[C@@H]1[C@H]2CCCC(=O)N3CC[C@@H](C[C@@H]1OC(=O)Nc1ccccc1)[C@@H]23", "Potency": "inconclusive [inhibitor, full curve]"}
{"smiles": "Cc1cc(SCC#N)n2nc(C)c(-c3ccc(Cl)cc3)c2n1", "Potency": "inconclusive [inhibitor, single point]"}
{"smiles": "CC1CN(C(=O)CCC(=O)NCc2ccc(F)cc2)c2ccccc2S1", "note": "(configuration not stated)", "Potency": "inconclusive [inhibitor, partial curve, poor fit]"}
{"smiles": "CCCC(C(=O)NCc1ccco1)N(C(=O)CNS(=O)(=O)c1ccc(Cl)cc1)C1CCCC1", "note": "(configuration not stated)", "Potency": "active: 11.7 µM"}
{"smiles": "COc1ccc(-c2cc(C(F)(F)F)nc(SCC(N)=O)n2)cc1", "Potency": "inactive"}
{"smiles": "COc1ccccc1C(=O)Nc1cc(Cl)ccc1O", "Potency": "inconclusive [inhibitor, partial curve]"}
{"smiles": "COc1cccc(CC2(CO)CCCN(Cc3ccc(C)s3)C2)c1", "note": "(configuration not stated)", "Potency": "inconclusive [inhibitor, single point]"}
{"smiles": "COc1ccc(NC(C)=O)cc1NC(=O)c1cccc(C(F)(F)F)c1", "Potency": "inactive"}
{"smiles": "O=c1[nH][nH]cc1C=Nc1ccc(Oc2ccccc2)cc1", "Potency": "inconclusive [inhibitor, partial curve, poor fit]"}
{"smiles": "O=C(c1ccc(Br)cc1)c1cc([N+](=O)[O-])ccc1N1CCOCC1", "Potency": "inconclusive [inhibitor, single point]"}
{"smiles": "COc1cccc(N2CCN(C(=O)c3ccc(CS(=O)c4ccccc4Cl)o3)CC2)c1", "note": "(configuration not stated)", "Potency": "inconclusive [inhibitor, single point]"}
{"smiles": "COc1ccccc1NC(=O)C1=C(C)NC(SCC(=O)c2ccccc2)=C(C#N)C1c1ccco1", "note": "(configuration not stated)", "Potency": "active: 9.28 µM"}
{"smiles": "COc1cc2c(cc1OC)CN(C(=O)/C=C/c1cccs1)CC2", "Potency": "inconclusive [inhibitor, single point]"}
{"smiles": "COc1ccc(Cl)cc1S(=O)(=O)N1CCN(C(=O)c2cc(OC)c(OC)c(OC)c2)CC1", "Potency": "inconclusive [inhibitor, single point]"}
{"smiles": "O=C(c1ccc(Cl)cc1)c1cnc(-c2ccccc2)s1", "Potency": "inactive"}
{"smiles": "CN(Cc1ccccc1)C(=O)CN(c1ccc(F)cc1)S(=O)(=O)c1ccc2c(c1)OCCO2", "Potency": "inconclusive [inhibitor, partial curve, poor fit]"}
{"smiles": "O=C(NCCNc1ccc([N+](=O)[O-])cc1)c1ccccc1Br", "Potency": "inconclusive [inhibitor, partial curve, poor fit]"}
{"smiles": "CCOc1cc(N2CCOCC2)c(OCC)cc1NC(=O)c1c(-c2ccccc2)noc1C", "Potency": "inconclusive [inhibitor, partial curve]"}
{"smiles": "CCOC(=O)C1CCCN(C(=O)c2cccc(N3C(=O)c4ccccc4C3=O)c2)C1", "note": "(configuration not stated)", "Potency": "inconclusive [inhibitor, single point]"}
{"smiles": "COc1ccccc1N1CCN(S(=O)(=O)c2ccccc2)CC1", "Potency": "inconclusive [inhibitor, single point]"}
{"smiles": "C[C@H](NC(=O)c1ccccc1Cl)C(=O)OCC(=O)N1CC2(C)CC1CC(C)(C)C2", "note": "(some centres not stated)", "Potency": "inactive"}
{"smiles": "c1cncc(-c2nc3ccccc3[nH]2)c1", "Potency": "inactive"}
{"smiles": "N=c1n(CCN2CCCCC2)c2ccccc2n1CC(=O)c1cccc([N+](=O)[O-])c1", "Potency": "active: 1.85 µM"}
{"smiles": "COc1ccc(S(=O)(=O)N(CC(=O)Nc2ccc(S(=O)(=O)N3CCOCC3)cc2)Cc2ccc(F)cc2)cc1", "Potency": "active: 14.7 µM"}
{"smiles": "CCOC(=O)NCc1ccc(S(=O)(=O)Nc2c(C)cccc2C)cc1", "Potency": "inactive"}
{"smiles": "CC(C)NC(=O)NC(=O)CSc1ncc(C(F)(F)F)cc1Cl", "Potency": "inconclusive [inhibitor, single point]"}
{"smiles": "Cc1cccc(NC(=O)c2nc[nH]c2C(=O)N[C@@H](CC(C)C)C(=O)OCc2ccccc2)c1", "Potency": "inconclusive [inhibitor, single point]"}
{"smiles": "CCN(CC)CCn1c2c(c(SCC(=O)Nc3ccc(C(C)C)cc3)nc1=O)CCCC2", "Potency": "inconclusive [inhibitor, partial curve]"}
{"smiles": "COc1ccc(C(=O)C[n+]2ccc(C)cc2)cc1", "Potency": "inconclusive [inhibitor, single point]"}
{"smiles": "COc1ccccc1-n1c(-c2ccc(F)cc2)coc1=O", "Potency": "inactive"}
{"smiles": "CCN1C(=O)[C@@H]2[C@@H](c3ccc(-c4ccc5c(c4)OCO5)cc3)N3CCCC[C@@]3(C(=O)OC)[C@@H]2C1=O", "Potency": "inconclusive [inhibitor, partial curve, poor fit]"}
{"smiles": "CCOC(=O)c1[nH]c2c(c1-c1ccccc1)C(=O)CC(c1ccccc1)C2", "note": "(configuration not stated)", "Potency": "inactive"}
{"smiles": "O=C(CC(=O)NC1CCCCC1)N/N=C/c1ccccc1[N+](=O)[O-]", "Potency": "inactive"}
{"smiles": "CC(=O)NC(Cc1ccc(C(C)C)cc1)C(=O)NC1CCN(C(=O)c2cccc(C)c2)CC1", "note": "(configuration not stated)", "Potency": "inconclusive [inhibitor, partial curve, poor fit]"}
{"smiles": "COC(=O)C1=C(N)Oc2cc(C)n(CC3CCCO3)c(=O)c2C1c1ccc(Cl)cc1", "note": "(configuration not stated)", "Potency": "inconclusive [inhibitor, partial curve, poor fit]"}
{"smiles": "CC(C)CCOc1ccc(C(=O)N2CCN(c3ncccn3)CC2)cc1", "Potency": "inactive"}
{"smiles": "O=S(=O)(Nc1ccc(O)c(CN2CCCCC2)c1)c1ccccc1", "Potency": "inconclusive [inhibitor, partial curve, poor fit]"}
{"smiles": "O=C(NC1CC1)c1ccc2c(c1)C1C3CCC(C3)C1C(c1ccccc1)N2", "note": "(configuration not stated)", "Potency": "active: 9.28 µM"}
{"smiles": "CCOC(=O)c1nn(-c2ccccc2)c2nnc(Cc3ccccc3)c(=O)n12", "Potency": "inactive"}
